Test results: PubChem BioAssay AID1466 (National Center for Advancing Translational Sciences (NCATS), 2008)
The whole screen tested about 200,000 compounds, of which about 10 (0.005%) were called active. Inconclusive results, whose numbers are uncertain, are shown with a selection of clear calls. Calls come from the whole dose curve; as a rule, active = well fitted inhibition curve with a large enough effect; inconclusive = small, poorly fitted or top-dose-only effect, or effect the other way, or another doubt; inactive = no such curve, though single readings can be large or run the other way. Potencies beside an inconclusive call are fits to weak or partial responses and may not hold up.

Target: Lysosomal alpha-glucosidase (Homo sapiens) (UniProt P10253)
Experiment: qHTS Assay for Inhibitors of Human alpha-Glucosidase as a Potential Chaperone Treatment of Pompe Disease;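 for activity change, negative = inhibition: plate controls were uninhibited enzyme wells for no effect and no-enzyme background for full effect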
Conditions: purified human GAA, 4-MU-alpha-glucoside fluorescence; activity change, negative = inhibition: at 76.9 µM (top of the series) unless noted
Procedure, shortened: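 Enzyme (4 nM final) mixed with compound (up to 77 uM), then 4-MU-alpha-D-pyranoside (400 uM final) added; 20 min at room temperature, pH 5.0. Reaction stopped at pH 10, fluorescence read, AC50 derived by Hill fit.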
Potency is the fitted concentration of half-maximal effect; tags give direction and shape of the fitted curve.

| Structure (SMILES) | Potency | activity change, negative = inhibition |
| --- | --- | --- |
| O=C(CSc1nc(O)c(Cc2ccccc2)c(=O)[nH]1)Nc1nc2c(s1)CCCC2 | inconclusive: 6.31 µM [inhibitor, single point] | – |
| O=C(OCn1nnc2ccccc2c1=O)C1CCN(S(=O)(=O)c2cccs2)CC1 | inconclusive: 20 µM [inhibitor, partial curve, poor fit] | – |
| CC1(C)CC(=O)C2=C(C1)N(c1ccc(F)cc1)C(=O)C2(NC(=O)c1ccccc1)C(F)(F)F (stereo not given) | inconclusive: 11.2 µM [inhibitor, single point] | – |
| Cc1cc(N2CCOCC2)nc2ccc(NC(=O)CCC(=O)N3CCCC(C)C3)cc12 (stereo not given) | inconclusive: 39.8 µM [activator, partial curve] | – |
| N#CCC(=O)Nc1ccc(C(=O)NCC(c2ccco2)N2CCCCC2)cc1 (stereo not given) | inconclusive: 35.5 µM [inhibitor, single point] | – |
| Cc1cc(NCc2ccco2)n2c(nc3ccccc32)c1C#N | inconclusive: 20 µM [activator, partial curve] | – |
| C=CCn1cnc2c(c1=O)c1nc3ccccc3nc1n2-c1ccc(C)cc1 | inconclusive: 5.01 µM [inhibitor, single point] | – |
| CC1(C)CC(c2nc(-c3ccc(Cl)cc3)cs2)CCS1 (stereo not given) | inconclusive: 28.2 µM [inhibitor, partial curve] | – |
| CCCC(=O)C1C(=O)CC(C)(C)C(c2cc(C)no2)C1=O (stereo not given) | inconclusive: 17.8 µM [inhibitor, single point] | – |
| Cc1ccc(-c2csc(N3N=C(c4ccccc4)/C(=C\c4ccc(N(C)C)cc4)C3=O)n2)cc1 | inconclusive: 11.2 µM [inhibitor, full curve, poor fit] | – |
| O=C(Cc1ccc(Cl)c(Cl)c1)OCC(=O)c1ccc[nH]1 | – | inconclusive: -19.1% [inhibitor] |
| Cc1cc(C)n2c(SCC(C)C)nnc2n1 | – | inconclusive: 14.8% [activator] |
| Cc1ccc(NC(=S)NC2CCCC2)cc1C | inconclusive: 56.2 µM [inhibitor, single point] | – |
| CCc1cccc(NC(=O)Nc2cccs2)c1 | inactive | – |
| Cc1noc(/C=C/N(C)C)c1S(=O)(=O)N1CCc2ccccc21 | inconclusive: 20 µM [inhibitor, partial curve] | – |
| Nc1nonc1-n1nnc(C(=O)N/N=C/c2ccc(Br)cc2)c1CSC1=NCCS1 | inactive | – |
| Cc1c2c(n3c(nc4ccccc43)c1C#N)N(CCN1CCOCC1)CC2 | inconclusive: 5.62 µM [activator, full curve] | – |
| COc1cc(CNc2nc(C)c([N+](=O)[O-])c(C)c2C#N)cc(OC)c1OC | inconclusive: 56.2 µM [inhibitor, single point] | – |
| CCCCS(=O)CC(COc1ccc(Cl)cc1)OC(=O)c1ccccc1 (stereo not given) | – | inconclusive: -17.5% [inhibitor] |
| CCOC(=O)N1CCN(c2cc(=O)n(-c3cccc(C)c3)c(=O)[nH]2)CC1 | – | inconclusive: -15.2% [inhibitor] |
| CC1C(=O)NN=C1C(=O)N/N=C\C(Br)=C\c1ccccc1 (stereo not given) | inactive | – |
| COc1ccc2nc(CC(C)(C)CC(=O)O)c[n+]([O-])c2c1 | inconclusive: 39.8 µM [activator, single point] | – |

| Structure (SMILES) | Potency | activity change, negative = inhibition |
| --- | --- | --- |
| Cc1ccsc1C1NC(=O)c2c(sc3c2CCN(C)C3)N1 (stereo not given) | inconclusive: 28.2 µM [activator, single point] | – |
| CC(=O)Nc1nc(SCC(=O)Nc2nnc(C)s2)[nH]c(=O)c1NC(=O)c1cccs1 | inconclusive: 1.26 µM [inhibitor, full curve, poor fit] | – |
| CC(=O)N1CCc2cc(S(=O)(=O)NC(C(=O)NCc3ccccc3)C(C)C)ccc21 (stereo not given) | inconclusive: 3.55 µM [inhibitor, single point] | – |
| COc1c(Cl)cc(Cl)cc1C(=O)Nc1ccc(NC(C)=O)cc1 | – | inconclusive: 19% [activator] |
| O=C1N/C(=N\N=C\c2cccs2)SC1Cc1ccc(Cl)cc1Cl (stereo not given) | inconclusive: 50.1 µM [inhibitor, single point] | – |
| CCCOc1ccc(/C=c2\sc3nc(-c4ccco4)nn3c2=O)cc1OCC | inconclusive: 6.31 µM [inhibitor, full curve, poor fit] | – |
| COc1ccc(-c2nnn(CC(=O)NCc3ccc4c(c3)OCO4)n2)cc1OC | – | inconclusive: 16.4% [activator] |
| COc1ccc(NC2CC(=O)N(C)C2=O)cc1 (stereo not given) | inconclusive: 39.8 µM [inhibitor, single point] | – |
| COCCOC(=O)C1=C(N)OC2=C(C(=O)CC(C)(C)C2)C1c1ccncc1 (stereo not given) | inconclusive: 10 µM [inhibitor, full curve, poor fit] | – |
| N#Cc1ccc(CSc2nnc(COc3ccccc3)n2-c2ccccc2)cc1 | inconclusive: 31.6 µM [inhibitor, partial curve] | – |
| CC[n+]1c(C=C2C=C(C)OC(C)=C2)sc2ccccc21 | inconclusive: 56.2 µM [inhibitor, partial curve] | – |
| O=C(N/N=C/c1cccnc1)c1ccc([N+](=O)[O-])cc1 | inconclusive: 11.2 µM [inhibitor, single point] | – |
| O=c1n(-c2ccccc2)c(=O)n2n1CCCC2 | inactive | – |
| CCN1C=C(C(=O)OC)C(c2cccc(OC)c2OC)C(C(=O)OC)=C1 | inconclusive: 35.5 µM [activator, partial curve] | – |
| Cc1nnc(SCC(=O)Nc2sc3c(c2C(=O)c2ccccc2)CCCC3)s1 | inconclusive: 31.6 µM [inhibitor, single point] | – |
| COc1cc2c(cc1OC)C(C)N(C(=O)c1cc3ccccc3o1)CC2 (stereo not given) | inconclusive: 11.2 µM [inhibitor, single point] | – |
| CC1=C2C(=O)OC(c3ccoc3)C2(C)CCC1 (stereo not given) | inconclusive: 35.5 µM [inhibitor, partial curve] | – |
| O=c1cc(CSc2nnnn2-c2ccccc2)nc2nc[nH]n12 | inconclusive: 7.08 µM [inhibitor, full curve, poor fit] | – |
| COc1ccccc1OCCNCC(O)COc1cccc2[nH]c3ccccc3c12 (stereo not given) | inconclusive: 11.2 µM [inhibitor, full curve] | – |
| CC1CCC(NC(=O)C2c3ccccc3C(=O)N2Cc2ccc3c(c2)OCO3)CC1 (stereo not given) | inconclusive: 56.2 µM [inhibitor, single point] | – |
| COc1ccc(C(=O)c2sc3nc(-c4ccccc4)ccc3c2N)cc1 | – | inconclusive: -16% [inhibitor] |
| COc1ccc(N(C(=O)Cn2nnc(-c3ccc(Cl)cc3)n2)C(C(=O)NCC2CCCO2)c2ccncc2)cc1 (stereo not given) | inconclusive: 5.62 µM [inhibitor, full curve, poor fit] | – |

| Structure (SMILES) | Potency | activity change, negative = inhibition |
| --- | --- | --- |
| NC(N)=N/N=C/c1ccccc1 | inactive | – |
| CC1CCN(CCCn2c(SCC(=O)Nc3ccccc3Cl)nc3ccccc3c2=O)CC1 | inconclusive: 17.8 µM [inhibitor, single point] | – |
| O=C(O)CCc1ccc(-c2ccc(Br)cc2)n1CC(=O)O | inconclusive: 35.5 µM [inhibitor, partial curve, poor fit] | – |
| Cc1cc(C)[n+](-c2ccc(C(C)C)cc2)c2[nH]c(=O)[nH]c(=O)c12 | inconclusive: 35.5 µM [activator, partial curve] | – |
| CCCCCn1c(=O)[nH]c2cc(C(=O)NCCCN3CCC(C)CC3)ccc2c1=O | inconclusive: 31.6 µM [activator, partial curve] | – |
| CC(C)[C@H](NC(=O)c1ccccc1)C(=O)OCC(=O)/C=C1/N(C)c2ccccc2C1(C)C | inconclusive: 0.708 µM [inhibitor, full curve, poor fit] | – |
| CC(C)C(C)(C#N)NC(=O)CSc1nc(C2CCCCC2)n(-c2ccccc2)n1 (stereo not given) | inconclusive: 50.1 µM [inhibitor, single point] | – |
| CC(=O)/C(=N/Nc1cccc(Cl)c1)N1CCOCC1 | inactive | – |
| COC(=O)N/N=C/c1cn(Cc2ccc(Cl)cc2Cl)c2ccccc12 | inconclusive: 5.62 µM [inhibitor, single point] | – |
| CCOC(=O)c1cnc2nc(C)[nH]n2c1=O | inconclusive: 25.1 µM [activator, partial curve, poor fit] | – |
| O=C(c1ccc2c(c1)OCCO2)C1CCN(C(=O)c2ccc(F)cc2)CC1 | inconclusive: 39.8 µM [inhibitor, single point] | – |
| N#Cc1cc(C(=O)c2ccccc2O)cn(-c2nccs2)c1=O | inconclusive: 11.2 µM [inhibitor, single point] | – |
| Cc1[nH]c2ccccc2c1Cc1nnc(SCC(=O)NCc2ccco2)o1 | – | inconclusive: -15.9% [inhibitor] |
| CNC(=O)c1cc2cc(OC)ccc2oc1=O | inconclusive: 39.8 µM [activator, single point] | – |
| CC1(C)Cc2nc(NCCCO)c(C#N)cc2CO1 | inconclusive: 35.5 µM [activator, partial curve] | – |
| COc1cc(-c2nc3ccccc3s2)ccc1O | inconclusive: 25.1 µM [activator, partial curve] | – |
| Oc1ccc(-c2nc3c4c(ncn3n2)-c2ccccc2CC42CCCC2)cc1 | inconclusive: 31.6 µM [inhibitor, single point] | – |
| Cc1cc(C)c2c(N)c(C(=O)C(C)(C)C)sc2n1 | inconclusive: 44.7 µM [activator, single point] | – |
| CC1=C(C(N)=O)C(c2cccc(O)c2)n2nc(CCCO)nc2N1 (stereo not given) | – | inconclusive: -16.2% [inhibitor] [at 15.4 µM] |
| CCOC(=O)Cc1csc(NC(=O)Nc2ccc(OC(F)(F)F)cc2)n1 | – | inactive: 0.508% [at 15.4 µM] |
| O=C(c1cccc(F)c1)N1CCC(c2nc3ccccc3s2)CC1 | inconclusive: 7.08 µM [inhibitor, single point] | – |
